Patent US11897961B2, “Anti-CD123 antibodies and conjugates and derivatives thereof” (IMMUNOGEN, INC., priority 2015, dated 2024)

How the values were obtained:
[1] = system: K562 cells; test: In vitro cytotoxicity assay, K562 (CD123 negative); format: cell-based, human; conditions: read-out: huCD123-CysMab-D5 IC50 pMol
[2] = system: SKM-1 cells; test: In vitro cytotoxicity assay, SKM-1; format: cell-based, human; conditions: SKM-1, P53; read-out: huCD123-CysMab-D5 IC50 pMol
[3] = In vivo tolerability in CD-1 mice; set-up: species or system mouse; conditions: for Number of mice euthanized for >20 BW loss: single i.v.
Description: Female CD-1 mice received a single intravenous injection into the lateral tail vein of vehicle, 150 μg/kg (by D5, 12 mg/kg by huCD123) of huCD123-CysMab-D5, 125 μg/kg (by D5, 10 mg/kg by huCD123) of huCD123-CysMab-D5, 100 μg/kg (by D5, 8 mg/kg by huCD123) of huCD123-CysMab-D5, 150 μg/kg (by sD1, 14.3 mg/kg by huCD123) of huCD123-SeriMab-sD1 or 125 μg/kg (by sD 1, 11.9 by huCD123) of huCD123-SeriMab-sD 1. […] The mice were observed daily for 33 days, and body weights were determined. If an animal experienced greater than 20% body weight loss or became moribund, the animal was euthanized. Other than body weight loss, no other clinical observations were made during the course of the study in any of the treatment.
Female CD-1 mice received a single intravenous injection into the lateral tail vein of vehicle, 75 μg/kg (by D2, 4.4 mg/kg by huCD123) of huCD123-lysine linked-D2, 100 μg/kg (by D2, 5.9 mg/kg by huCD123) of huCD123-lysine linked-D2 or 125 μg/kg (by D2, 7.4 mg/kg by huCD123) of huCD123-lysine linked-D2. […] The mice were observed daily for 22 days, and body weights were determined. If an animal experienced greater than 20% body weight loss or became moribund, the animal was euthanized.

[4] = system: SHI-1 cells; test: In vitro cytotoxicity assay (WST-8), SHI-1; conditions: read-out: huCD123-CysMab-D5 IC50 pMol; SHI-1, P53
[5] = system: EOL-1 cells; test: In vitro cytotoxicity assay (WST-8), EOL-1; conditions: read-out: huCD123-CysMab-D5 IC50 pMol
[6] = system: MV4-11 cells; test: MV4-11 disseminated model in NOD SCID mice; conditions: for Median Survival Time: single i.v., day 7

B1: huCD123-CysMab-D5 (conjugate)
heavy: QVQLVQSGAEVKKPGASVKVSCKASGYIFTSSIMHWVRQAPGQGLEWIGYIKPYNDGTKYNEKFKGRATLTSDRSTSTAYMELSSLRSEDTAVYYCAREGGNDYYDTMDYWGQGTLVTVSS[here human IgG1 constant region with changes without letters]
light: DIQMTQSPSSLSASVGDRVTITCRASQDINSYLSWFQQKPGKAPKTLIYRVNRLVDGVPSRFSGSGSGNDYTLTISSLQPEDFATYYCLQYDAFPYTFGQGTKVEIKRTVAAPSVFIFPPSDEQLKSGTASVVCLLNNFYPREAKVQWKVDNALQSGNSQESVTEQDSKDSTYSLSSTLTLSKADYEKHKVYACEVTHQGLSSPVTKSFNRGEC
IC50 [1]: 8 nM | IC50 [2]: 7 pM | tolerability ([3]; 100 μg/kg by drug payload): tolerated | Number of mice euthanized for >20 BW loss ([3]; 100 μg/kg by drug payload): 0/8 | % decrease in mean body weight at nadir ([3]; 125 μg/kg by drug payload): 8.6% | Body weight nadir ([3]; 125 μg/kg by drug payload): 10 days | tolerability ([3]; 125 μg/kg by drug payload): not well tolerated | Number of mice euthanized for >20 BW loss ([3]; 125 μg/kg by drug payload): 1/8 | % decrease in mean body weight at nadir ([3]; 150 μg/kg by drug payload): 11% | Body weight nadir ([3]; 150 μg/kg by drug payload): 12 days | tolerability ([3]; 150 μg/kg by drug payload): not tolerated | Number of mice euthanized for >20 BW loss ([3]; 150 μg/kg by drug payload): 1/8 | IC50 [4]: 6 pM | IC50 [5]: 2 pM | Tumor Growth Delay (T-C, Days) ([6]; 1 μg/kg by payload): 35 days | Median Survival Time ([6]; 1 μg/kg by payload): 81 days | Tumor Growth Delay (T-C, Days) ([6]; 3 μg/kg by payload): 32 days | Median Survival Time ([6]; 3 μg/kg by payload): 78 days
